# In ChEMBL document CHEMBL5606460, “ASAP - DENV-2 NS2B-NS3 protease fluorescence single point” (2024):
# Among all 2,000 compounds or so, about 110 (5.5%) showed an effect of 50% or more. This is one part of the list.
# Biological target: Genome polyprotein (dengue virus type 2) (UniProt P29990)
# [1] = Thailand/16681/1984, Concentration 25.0 uM, Number of replicates 1.0
structure (smiles),measurement,setting,value
Cc1ccc(S(N)(=O)=O)c(NCc2ccc(N3CCN(C)CC3)cc2)c1,inhibition,"Thailand/16681/1984, Concentration 49.5 uM, Number of replicates 2.0, Standard deviation 0.9591550294519122 %",-0.337%
same,inhibition,"Thailand/16681/1984, Concentration 99.01 uM, Number of replicates 2.0, Standard deviation 0.6629248720953049 %",1.24%
same,inhibition,"Thailand/16681/1984, Concentration 198.0 uM, Number of replicates 2.0, Standard deviation 0.09920698004573132 %",1.03%
CN(CCO[Si](C)(C)C(C)(C)C)C(=O)C1CCN(c2ccc(C=O)cc2)CC1,inhibition,[1],11.8%
Cc1cc(CO)c2cccc(C[C@H](NC(=O)c3nc(-c4ccccc4)oc3C(F)(F)F)C(=O)O)c2n1,inhibition,"Thailand/16681/1984, Concentration 49.95 uM, Number of replicates 2.0, Standard deviation 1.1931156626508872 %",2.42%
same,inhibition,"Thailand/16681/1984, Concentration 99.9 uM, Number of replicates 2.0, Standard deviation 0.9640865689758992 %",8.9%
O=Cc1ccc(N2CCC(C(=O)N3CCN(C(c4ccc(F)cc4)c4ccc(F)cc4)CC3)CC2)cc1,inhibition,[1],1.35%
Cc1cc(CO)c2cccc(C[C@H](NC(=O)c3cccc(Cn4cncn4)c3)C(=O)O)c2n1,inhibition,"Thailand/16681/1984, Concentration 49.95 uM, Number of replicates 2.0, Standard deviation 0.4600859565255321 %",2.21%
same,inhibition,"Thailand/16681/1984, Concentration 99.9 uM, Number of replicates 2.0, Standard deviation 0.9708422030300133 %",6.14%
CN1CCN(c2ccc(CNCc3cccc(S(N)(=O)=O)c3)cc2)CC1,inhibition,"Thailand/16681/1984, Concentration 49.5 uM, Number of replicates 2.0, Standard deviation 0.282786134545178 %",-2.84%
same,inhibition,"Thailand/16681/1984, Concentration 99.01 uM, Number of replicates 2.0, Standard deviation 0.07602768850443749 %",-2.04%
same,inhibition,"Thailand/16681/1984, Concentration 198.0 uM, Number of replicates 2.0, Standard deviation 0.4014635677569415 %",-1.64%
O=C1NCc2ccccc2C12CCNCC2,inhibition,"Thailand/16681/1984, Concentration 49.5 uM, Number of replicates 2.0, Standard deviation 0.5161955896985736 %",0.377%
same,inhibition,"Thailand/16681/1984, Concentration 99.01 uM, Number of replicates 2.0, Standard deviation 0.21727012294044853 %",0.722%
same,inhibition,"Thailand/16681/1984, Concentration 198.0 uM, Number of replicates 2.0, Standard deviation 1.3604452261475042 %",0.126%
O=C(NCc1ccccc1)c1cc(O)ccc1NS(=O)(=O)c1ccc(Oc2ccccc2Cl)cc1,inhibition,"Thailand/16681/1984, Concentration 49.5 uM, Number of replicates 2.0, Standard deviation 0.5844803568567073 %",33.5%
same,inhibition,"Thailand/16681/1984, Concentration 99.01 uM, Number of replicates 2.0, Standard deviation 0.18145668135528656 %",55.3%
same,inhibition,"Thailand/16681/1984, Concentration 198.0 uM, Number of replicates 2.0, Standard deviation 0.23302823954279267 %",60.6%
O=Cc1ccc(N2CCC(C(=O)NCc3ccccc3-n3cccn3)CC2)cc1,inhibition,[1],13.9%
COc1cc(CN2CC(O)C2)ccc1OC[C@@H](O)CN1CCC(O)CC1,inhibition,"Thailand/16681/1984, Concentration 49.5 uM, Number of replicates 2.0, Standard deviation 0.3903057164492887 %",-0.64%
same,inhibition,"Thailand/16681/1984, Concentration 99.01 uM, Number of replicates 2.0, Standard deviation 0.677644680011159 %",-0.711%
same,inhibition,"Thailand/16681/1984, Concentration 198.0 uM, Number of replicates 2.0, Standard deviation 1.5326209607264492 %",-0.547%
COc1cccc(Cn2cc(C3CCNCC3)c(C)n2)n1,inhibition,"Thailand/16681/1984, Concentration 49.5 uM, Number of replicates 2.0, Standard deviation 0.5897033629115713 %",-3.33%
same,inhibition,"Thailand/16681/1984, Concentration 99.01 uM, Number of replicates 2.0, Standard deviation 0.7206939136220955 %",-3.64%
same,inhibition,"Thailand/16681/1984, Concentration 198.0 uM, Number of replicates 2.0, Standard deviation 2.0772079346215944 %",-3.79%
NS(=O)(=O)c1cccc(CN2CC[C@H](c3c[nH]c4ccccc34)C2)c1,inhibition,"Thailand/16681/1984, Concentration 49.5 uM, Number of replicates 2.0, Standard deviation 1.1633260593891446 %",-1.78%
same,inhibition,"Thailand/16681/1984, Concentration 99.01 uM, Number of replicates 2.0, Standard deviation 1.588607527736017 %",0.04%
same,inhibition,"Thailand/16681/1984, Concentration 198.0 uM, Number of replicates 2.0, Standard deviation 1.7864683947344713 %",2.15%
O=Cc1ccc(N2CCC(C(=O)N[C@@H](Cc3ccccc3)c3ccccc3)CC2)cc1,inhibition,[1],4.84%
CC(C)(C)N(C[C@H](O)c1ccc(O)c(CO)c1)C(=O)C1CCN(c2ccc(C=O)cc2)CC1,inhibition,[1],12.9%
Cc1cc(CO)c2cccc(Nc3nonc3C(N)=O)c2n1,inhibition,"Thailand/16681/1984, Concentration 49.95 uM, Number of replicates 2.0, Standard deviation 1.5271718368293243 %",11%
same,inhibition,"Thailand/16681/1984, Concentration 99.9 uM, Number of replicates 2.0, Standard deviation 3.697399383401008 %",23.8%
COc1ccccc1C[C@H](C)N(C)C(=O)C1CCN(c2ccc(C=O)cc2)CC1,inhibition,[1],16.3%
Cc1cc(CO)c2cccc(Cc3cccc(NC(=O)Cc4c(C)c5c(=O)[nH]n(C)c5[nH]c4=O)c3)c2n1,inhibition,"Thailand/16681/1984, Concentration 49.95 uM, Number of replicates 2.0, Standard deviation 0.9721935995806666 %",38.4%
same,inhibition,"Thailand/16681/1984, Concentration 99.9 uM, Number of replicates 2.0, Standard deviation 1.6660426680996274 %",65.6%
Cc1cc(CO)c2cccc(Cc3ccccc3C(=O)N3CCCNCC3)c2n1,inhibition,"Thailand/16681/1984, Concentration 49.95 uM, Number of replicates 2.0, Standard deviation 1.9396415483127036 %",-2.37%
same,inhibition,"Thailand/16681/1984, Concentration 99.9 uM, Number of replicates 2.0, Standard deviation 2.1516438209514726 %",5.47%
CC(C)(C)N(Cc1cccnc1)C(=O)C1CCN(c2ccc(C=O)cc2)CC1,inhibition,[1],15.3%
O=C1NCCC[C@@H]1CNS(=O)(=O)c1ccc(Oc2ccccc2Cl)cc1,inhibition,"Thailand/16681/1984, Concentration 49.5 uM, Number of replicates 2.0, Standard deviation 0.9940716071741866 %",-2.68%
same,inhibition,"Thailand/16681/1984, Concentration 99.01 uM, Number of replicates 2.0, Standard deviation 0.27557480876496404 %",-0.801%
same,inhibition,"Thailand/16681/1984, Concentration 198.0 uM, Number of replicates 2.0, Standard deviation 0.9840594547230297 %",1.79%
Cc1cc(CO)c2cccc(C[C@H](NC(=O)CCC3CCNCC3)C(=O)O)c2n1,inhibition,"Thailand/16681/1984, Concentration 49.95 uM, Number of replicates 2.0, Standard deviation 0.656686674900359 %",-4.67%
same,inhibition,"Thailand/16681/1984, Concentration 99.9 uM, Number of replicates 2.0, Standard deviation 0.4526541184339091 %",-4.34%
NS(=O)(=O)c1ccc(C2CCN(Cc3c[nH]c4ccccc34)CC2)cc1,inhibition,"Thailand/16681/1984, Concentration 49.5 uM, Number of replicates 2.0, Standard deviation 0.5777028907350644 %",1.89%
same,inhibition,"Thailand/16681/1984, Concentration 99.01 uM, Number of replicates 2.0, Standard deviation 0.29606761803532494 %",3.74%
same,inhibition,"Thailand/16681/1984, Concentration 198.0 uM, Number of replicates 2.0, Standard deviation 0.9562405116571111 %",7.14%
Cc1[nH]c(=O)c(NC(=O)C2CCN(c3ccc(C=O)cc3)CC2)cc1Br,inhibition,[1],27.8%
Cn1cccc(CN2CCC(c3c[nH]c4cccnc34)CC2)c1=O,inhibition,"Thailand/16681/1984, Concentration 49.5 uM, Number of replicates 2.0, Standard deviation 0.020617521795104676 %",0.143%
same,inhibition,"Thailand/16681/1984, Concentration 99.01 uM, Number of replicates 2.0, Standard deviation 0.8828423097135296 %",0.656%
same,inhibition,"Thailand/16681/1984, Concentration 198.0 uM, Number of replicates 2.0, Standard deviation 0.47379063652157694 %",1.17%
CC(C)c1cc(CNC(=O)[C@]2(c3ccc(F)cc3)CCCNC2)[nH]n1,inhibition,"Thailand/16681/1984, Concentration 49.5 uM, Number of replicates 2.0, Standard deviation 0.4691512826590698 %",-0.311%
same,inhibition,"Thailand/16681/1984, Concentration 99.01 uM, Number of replicates 2.0, Standard deviation 0.2530804456588207 %",0.773%
same,inhibition,"Thailand/16681/1984, Concentration 198.0 uM, Number of replicates 2.0, Standard deviation 1.1238949088177357 %",0.844%
Cc1cnccc1CN1CCC(c2c[nH]c3cccnc23)CC1,inhibition,"Thailand/16681/1984, Concentration 49.5 uM, Number of replicates 2.0, Standard deviation 2.9317478900876757 %",-1.55%
same,inhibition,"Thailand/16681/1984, Concentration 99.01 uM, Number of replicates 2.0, Standard deviation 4.2441940513680025 %",-1.09%
same,inhibition,"Thailand/16681/1984, Concentration 198.0 uM, Number of replicates 2.0, Standard deviation 4.124648308783217 %",-1.04%
Cn1cc([C@@H](NC(=O)OCc2ccccc2)C(=O)Nc2cccc(CN)c2)cn1,inhibition,"Thailand/16681/1984, Concentration 49.5 uM, Number of replicates 2.0, Standard deviation 1.4908611467254307 %",-3.8%
same,inhibition,"Thailand/16681/1984, Concentration 99.01 uM, Number of replicates 2.0, Standard deviation 0.7231895128161225 %",-3.33%
same,inhibition,"Thailand/16681/1984, Concentration 198.0 uM, Number of replicates 2.0, Standard deviation 0.43381818607220846 %",-2.85%
Cc1cc(CO)c2cccc(Cc3ccccc3NC(=O)c3ccc(N)nn3)c2n1,inhibition,"Thailand/16681/1984, Concentration 49.95 uM, Number of replicates 2.0, Standard deviation 0.1848599866889806 %",-0.161%
same,inhibition,"Thailand/16681/1984, Concentration 99.9 uM, Number of replicates 2.0, Standard deviation 2.497340870394922 %",0.405%
